{"source": "PubChem BioAssay AID1347417", "about": "(National Center for Advancing Translational Sciences (NCATS), 2020)", "note": "Out of some 120,000 compounds screened, about 5,300 (4.4%) were called active. Inconclusive means that the source gave no clear call. Such entries were picked first, then a sample of the others. Calls follow the shape of the dose curve; as a rule, active = well fitted inhibition curve with a large enough effect; inconclusive = small, poorly fitted or top-dose-only effect; inactive = no such curve, though single readings can be large or run the other way. Potencies of inconclusive entries are doubtful fits and often do not repeat. Potency is read from the fitted curve at half-maximal effect; tags tell the direction and shape of the fitted curve."}
{"test": "qHTS Primary assay for Inhibitors of Plasmodium falciparum Dd2 growth in vitro; also: nearly all actives have a fitted effect of over 65% in size;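 as to activity, negative = inhibition: plate controls were DMSO vehicle for no effect and reference drug for full effect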", "conditions": "P. falciparum Dd2 growth, SYBR Green, 72 h; activity, negative = inhibition: at 28.9 µM (top of the series) unless noted; series mostly up to 28.9 µM", "summary_of_the_method": "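Infected erythrocytes (Dd2, 0.3% parasitemia, 2.5% hematocrit final) are added to compound in RPMI-1640/Albumax II medium, grown 72 h at 37C in low oxygen, then lysed with saponin/Triton-X containing SYBR Green and read by fluorescence.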"}
{"smiles": "CNC(=O)[C@@H]1C[C@H](Oc2ccccc2)CN1S(=O)(=O)c1cccnc1", "activity, negative = inhibition": "inactive: 6.28%"}
{"smiles": "CCC1c2nccn2CCCN1C(=O)c1cc(C)n(CCCOC)c1C", "note": "(stereo not drawn)", "Potency": "inconclusive: 17.8 µM [inhibitor, single point]"}
{"smiles": "COCCCNC(=O)C(NC(=O)c1ccccc1)C1CCN(C(=O)c2ccc(Cl)cc2)CC1", "note": "(stereo not drawn)", "Potency": "inconclusive: 2 µM [inhibitor, partial curve, poor fit]"}
{"smiles": "CN1Cc2cccn2CC1CNC(=O)c1ccccc1", "note": "(stereo not drawn)", "Potency": "active: 11.2 µM"}
{"smiles": "CN(C1CCCCC1)S(=O)(=O)c1ccc2c(c1)c(=O)c(C(=O)NCCc1ccccc1)cn2C", "Potency": "inconclusive: 3.98 µM [inhibitor, single point]"}
{"smiles": "O=C1CC(c2ccccc2)N(C(=O)C2CC2)CCCN(C(=O)c2cc3ccccc3[nH]2)CCN1", "note": "(stereo not drawn)", "Potency": "active: 11.2 µM"}
{"smiles": "Cc1ccsc1C(=O)NC1CCN(c2cnn(CC3CC3)c(=O)c2)CC1", "activity, negative = inhibition": "inactive: -6.31%"}
{"smiles": "CCC(=O)N1CCc2cc(Br)cc(S(=O)(=O)N3CCCC(C(=O)Nc4ccc(OC)c(Cl)c4)C3)c21", "note": "(stereo not drawn)", "Potency": "inconclusive: 1.26 µM [inhibitor, full curve]"}
{"smiles": "O=C1Nc2ccccc2C12CN(CC1CCCCC1)C2", "Potency": "inconclusive: 14.1 µM [inhibitor, single point]"}
{"smiles": "Cc1noc(C2CC3(CCN(C(=O)Cc4cccc(F)c4)CC3)CN2C)n1", "note": "(stereo not drawn)", "Potency": "inconclusive: 11.2 µM [inhibitor, single point]"}
{"smiles": "CCOC(=O)c1cccc(NC(=O)C(CC(C)C)N2Cc3ccccc3C2=O)c1", "note": "(stereo not drawn)", "Potency": "inconclusive: 17.8 µM [inhibitor, single point]"}
{"smiles": "CN1Cc2cccn2CC1CNC(=O)c1ccsc1", "note": "(stereo not drawn)", "Potency": "inconclusive: 12.6 µM [inhibitor, partial curve, poor fit]"}
{"smiles": "COc1ccccc1CC(=O)N1CCCc2ncc(C(=O)Nc3nc(C)cs3)cc21", "Potency": "inconclusive: 25.1 µM [inhibitor, partial curve, poor fit]"}
{"smiles": "CCN(CC)Cc1cnc2c(C(=O)N3CCC(N4CCCC4)CC3)cnn2c1", "activity, negative = inhibition": "inactive: -0.315%"}
{"smiles": "COc1cccc(S(=O)(=O)N2CC(n3cc(C(=O)NCC4CC4)nn3)C2)c1", "Potency": "inconclusive: 2.82 µM [inhibitor, single point]"}
{"smiles": "CSCC[C@@H]1NC(=O)c2cc(NC(=O)c3cc(-c4cccnc4)n[nH]3)ccc2NC1=O", "Potency": "inconclusive: 2.82 µM [inhibitor, single point]"}
{"smiles": "COc1ccc2oc(=O)c(C(=O)NCCc3c(C)[nH]c4c(Cl)cccc34)cc2c1", "Potency": "inconclusive: 5.62 µM [inhibitor, partial curve]"}
{"smiles": "O=C(Nc1cccc(Cl)c1Cl)c1ccc2c(c1)N(Cc1cccc(Cl)c1)C(=O)c1ccccc1S2(=O)=O", "Potency": "active: 5.62 µM"}
